# Assay results as given in the supplement of paper PMC8728848.
# This is one part of the list.
# Columns and labels:
# Assay in all cases: glycan array binding signal (z-score within array); higher = stronger binding
# Conditions in all cases: glycan notation: IUPAC condensed, linker removed
# [1] = molecular target: Neu5Ac(a2-6)Gal(b1-4)GlcNAc(b1-3)Gal(b1-4)GlcNAc(b1-3)Gal(b1-4)GlcNAc(b1-2)Man(a1-3)[Neu5Ac(a2-6)Gal(b1-4)GlcNAc(b1-3)Gal(b1-4)GlcNAc(b1-3)Gal(b1-4)GlcNAc(b1-2)Man(a1-6)]GalNAc
# Procedure, shortened: (§1)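 Glycan array data came from 3228 arrays in the Consortium for Functional Glycomics database, and only arrays with an available protein sequence were kept. Glycan names were put into IUPAC-condensed notation, and columns mapping to the same glycan were averaged. The binding signal is a within-array Z-score, averaged across arrays of one protein sequence run at different concentrations or buffers and across linkers. A negative Z-score can be read as non-binding.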
# [2] = molecular target: Neu5Ac(a2-6)Gal(b1-4)GlcNAc(b1-3)Gal(b1-4)GlcNAc(b1-3)GalNAc
# Procedure, shortened: as §1
# [3] = molecular target: Neu5Ac(a2-6)Gal(b1-4)GlcNAc(b1-3)Gal(b1-4)GlcNAc(b1-3)[Neu5Ac(a2-6)Gal(b1-4)GlcNAc(b1-3)Gal(b1-4)GlcNAc(b1-6)]GalNAc
# Procedure, shortened: as §1
# [4] = molecular target: Neu5Ac(a2-6)Gal(b1-4)GlcNAc(b1-3)Gal(b1-4)GlcNAc(b1-6)[Gal(b1-3)]GalNAc
# Procedure, shortened: as §1
# [5] = molecular target: Neu5Ac(a2-6)Gal(b1-4)GlcNAc(b1-3)Gal(b1-4)[Fuc(a1-3)]GlcNAc(b1-3)Gal(b1-4)[Fuc(a1-3)]GlcNAc
# Procedure, shortened: as §1
# [6] = molecular target: Neu5Ac(a2-6)Gal(b1-4)GlcNAc(b1-3)GalNAc
# Procedure, shortened: as §1
# [7] = molecular target: Neu5Ac(a2-6)Gal(b1-4)GlcNAc(b1-3)[Neu5Ac(a2-6)Gal(b1-4)GlcNAc(b1-6)]GalNAc
# Procedure, shortened: as §1
# [8] = molecular target: Neu5Ac(a2-6)Gal(b1-4)GlcNAc(b1-6)GalNAc
# Procedure, shortened: as §1
# [9] = molecular target: Neu5Ac(a2-6)Gal(b1-4)GlcNAc(b1-6)[Gal(b1-3)GlcNAc(b1-3)]Gal(b1-4)Glc
# Procedure, shortened: as §1
# [10] = molecular target: Neu5Ac(a2-6)Gal(b1-4)GlcNAc(b1-6)[Gal(b1-3)]GalNAc
# Procedure, shortened: as §1
# [11] = molecular target: Neu5Ac(a2-6)Gal(b1-4)GlcNAc6S
# Procedure, shortened: as §1
# Neu5Ac(a2-6)GalNAc = molecular target: Neu5Ac(a2-6)GalNAc
# Procedure, shortened: as §1
# [12] = molecular target: Neu5Ac(a2-6)GalNAc(b1-4)GlcNAc
# Procedure, shortened: as §1
# [13] = molecular target: Neu5Ac(a2-6)GalNAc(b1-4)GlcNAc6S
# Procedure, shortened: as §1
# [14] = molecular target: Neu5Ac(a2-6)GlcNAc(b1-4)GlcNAc
# Procedure, shortened: as §1
# [15] = molecular target: Neu5Ac(a2-6)GlcNAc(b1-4)GlcNAc(b1-4)GlcNAc
# Procedure, shortened: as §1
# Neu5Ac(a2-8)Neu5Ac = molecular target: Neu5Ac(a2-8)Neu5Ac
# Procedure, shortened: as §1
# [16] = molecular target: Neu5Ac(a2-8)Neu5Ac(a2-3)Gal(b1-3)GalNAc(b1-4)[Neu5Ac(a2-3)]Gal(b1-4)Glc
# Procedure, shortened: as §1
# [17] = molecular target: Neu5Ac(a2-8)Neu5Ac(a2-3)Gal(b1-3)GalNAc(b1-4)[Neu5Ac(a2-8)Neu5Ac(a2-3)]Gal(b1-4)Glc
# Procedure, shortened: as §1
# [18] = molecular target: Neu5Ac(a2-8)Neu5Ac(a2-3)Gal(b1-4)Glc
# Procedure, shortened: as §1
# [19] = molecular target: Neu5Ac(a2-8)Neu5Ac(a2-3)Gal(b1-4)GlcNAc
# Procedure, shortened: as §1
# [20] = molecular target: Neu5Ac(a2-8)Neu5Ac(a2-3)[Gal(b1-3)GalNAc(b1-4)]Gal(b1-4)Glc
# Procedure, shortened: as §1
# [21] = molecular target: Neu5Ac(a2-8)Neu5Ac(a2-3)[GalNAc(b1-4)]Gal(b1-4)Glc
# Procedure, shortened: as §1
# [22] = molecular target: Neu5Ac(a2-8)Neu5Ac(a2-8)Neu5Ac
# Procedure, shortened: as §1
# [23] = molecular target: Neu5Ac(a2-8)Neu5Ac(a2-8)Neu5Ac(a2-3)Gal(b1-4)Glc
# Procedure, shortened: as §1
# [24] = molecular target: Neu5Ac(a2-8)Neu5Ac(a2-8)Neu5Ac(a2-3)[Gal(b1-3)GalNAc(b1-4)]Gal(b1-4)Glc
# Procedure, shortened: as §1
# [25] = molecular target: Neu5Ac(a2-8)Neu5Ac(a2-8)Neu5Ac(a2-3)[GalNAc(b1-4)]Gal(b1-4)Glc
# Procedure, shortened: as §1
# [26] = molecular target: Neu5Ac(a2-8)Neu5Ac(a2-8)Neu5Ac(a2-8)Neu5Ac(a2-3)[GalNAc(b1-4)]Gal(b1-4)Glc
# Procedure, shortened: as §1
# [27] = molecular target: Neu5Ac(a2-8)Neu5Gc(a2-3)Gal(b1-4)GlcNAc
# Procedure, shortened: as §1
# Neu5Ac(b1-6)GalNAc = molecular target: Neu5Ac(b1-6)GalNAc
# Procedure, shortened: as §1
# [28] = molecular target: Neu5Ac(b2-6)Gal(b1-4)GlcNAc
# Procedure, shortened: as §1
# Neu5Ac(b2-6)GalNAc = molecular target: Neu5Ac(b2-6)GalNAc
# Procedure, shortened: as §1
# [29] = molecular target: Neu5Ac9Ac(a2-3)Gal(b1-3)GlcNAc
# Procedure, shortened: as §1
# [30] = molecular target: Neu5Ac9Ac(a2-3)Gal(b1-4)GlcNAc
# Procedure, shortened: as §1
# [31] = molecular target: Neu5Ac9Ac(a2-6)Gal(b1-4)GlcNAc
# Procedure, shortened: as §1
# [32] = molecular target: Neu5Gc(a2-3)Gal(b1-3)GlcNAc
# Procedure, shortened: as §1
# [33] = molecular target: Neu5Gc(a2-3)Gal(b1-3)[Fuc(a1-4)]GlcNAc
# Procedure, shortened: as §1
# Neu5Gc(a2-3)Gal(b1-4)Glc = molecular target: Neu5Gc(a2-3)Gal(b1-4)Glc
# Procedure, shortened: as §1
# [34] = molecular target: Neu5Gc(a2-3)Gal(b1-4)GlcNAc
# Procedure, shortened: as §1
# [35] = molecular target: Neu5Gc(a2-3)Gal(b1-4)GlcNAc(b1-3)Gal(b1-4)GlcNAc(b1-2)Man(a1-3)[Neu5Gc(a2-3)Gal(b1-4)GlcNAc(b1-3)Gal(b1-4)GlcNAc(b1-2)Man(a1-6)]Man(b1-4)GlcNAc(b1-4)GlcNAc
# Procedure, shortened: as §1
# [36] = molecular target: Neu5Gc(a2-3)Gal(b1-4)[Fuc(a1-3)]GlcNAc
# Procedure, shortened: as §1
# [37] = molecular target: Neu5Gc(a2-6)Gal(b1-4)GlcNAc
# Procedure, shortened: as §1
# Neu5Gc(a2-6)GalNAc = molecular target: Neu5Gc(a2-6)GalNAc
# Procedure, shortened: as §1
# [38] = molecular target: Neu5Gc(a2-8)Neu5Ac(a2-3)Gal(b1-4)GlcNAc
# Procedure, shortened: as §1
# [39] = molecular target: Neu5Gc(a2-8)Neu5Gc(a2-3)Gal(b1-4)GlcNAc
# Procedure, shortened: as §1
# [40] = molecular target: Neu5Gc(a2-8)Neu5Gc(a2-3)Gal(b1-4)GlcNAc(b1-3)Gal(b1-4)GlcNAc
# Procedure, shortened: as §1
# [41] = molecular target: Neu5Gc(a2-8)Neu5Gc(a2-6)Gal(b1-4)GlcNAc
# Procedure, shortened: as §1
# [42] = molecular target: Neu5Gc(b2-6)Gal(b1-4)GlcNAc
# Procedure, shortened: as §1
binder,measurement,setting,value
WGA (Triticum vulgare) (protein) QRCGEQGSNMECPNNLCCSQYGYCGMGGDYCGKGCQNGACWTSKRCGSQAGGATCPNNHCCSQYGHCGFGAEYCGAGCQGGPCRADIKCGSQSGGKLCPNNLCCSQWGFCGLGSEFCGGGCQSGACSTDKPCGKDAGGRVCTNNYCCSKWGSCGIGPGYCGAGCQSGGCDAVFAGAITANSTLLAE,glycan array binding signal (z-score),[1],0.117
same,glycan array binding signal (z-score),[2],-0.431
same,glycan array binding signal (z-score),[3],0.175
same,glycan array binding signal (z-score),[4],-0.248
same,glycan array binding signal (z-score),[5],-0.359
same,glycan array binding signal (z-score),[6],-0.363
same,glycan array binding signal (z-score),[7],-0.339
same,glycan array binding signal (z-score),[8],-0.307
same,glycan array binding signal (z-score),[9],-0.328
same,glycan array binding signal (z-score),[10],-0.306
same,glycan array binding signal (z-score),[11],-0.359
same,glycan array binding signal (z-score),Neu5Ac(a2-6)GalNAc,-0.298
same,glycan array binding signal (z-score),[12],1.7
same,glycan array binding signal (z-score),[13],-0.029
same,glycan array binding signal (z-score),[14],2.48
same,glycan array binding signal (z-score),[15],3.14
same,glycan array binding signal (z-score),Neu5Ac(a2-8)Neu5Ac,-0.34
same,glycan array binding signal (z-score),[16],-0.345
same,glycan array binding signal (z-score),[17],-0.39
same,glycan array binding signal (z-score),[18],-0.376
same,glycan array binding signal (z-score),[19],-0.288
same,glycan array binding signal (z-score),[20],-0.31
same,glycan array binding signal (z-score),[21],-0.382
same,glycan array binding signal (z-score),[22],-0.363
same,glycan array binding signal (z-score),[23],-0.35
same,glycan array binding signal (z-score),[24],-0.292
same,glycan array binding signal (z-score),[25],-0.301
same,glycan array binding signal (z-score),[26],-0.352
same,glycan array binding signal (z-score),[27],-0.29
same,glycan array binding signal (z-score),Neu5Ac(b1-6)GalNAc,1.43
same,glycan array binding signal (z-score),[28],-0.366
same,glycan array binding signal (z-score),Neu5Ac(b2-6)GalNAc,-0.008
same,glycan array binding signal (z-score),[29],-0.328
same,glycan array binding signal (z-score),[30],0.222
same,glycan array binding signal (z-score),[31],-0.389
same,glycan array binding signal (z-score),[32],-0.368
same,glycan array binding signal (z-score),[33],-0.336
same,glycan array binding signal (z-score),Neu5Gc(a2-3)Gal(b1-4)Glc,-0.362
same,glycan array binding signal (z-score),[34],-0.261
same,glycan array binding signal (z-score),[35],-0.157
same,glycan array binding signal (z-score),[36],-0.347
same,glycan array binding signal (z-score),[37],-0.36
same,glycan array binding signal (z-score),Neu5Gc(a2-6)GalNAc,-0.324
same,glycan array binding signal (z-score),[38],-0.339
same,glycan array binding signal (z-score),[39],-0.351
same,glycan array binding signal (z-score),[40],-0.312
same,glycan array binding signal (z-score),[41],-0.335
same,glycan array binding signal (z-score),[42],-0.332
